Assay results: PubChem BioAssay AID360 (National Center for Advancing Translational Sciences (NCATS), 2006)
In all, about 48,000 compounds went through this assay and about 550 (1.1%) were called active. Roughly 4% stayed inconclusive and do not appear here. No stated cut-off is given here; in the data, active means potency below about 15 µM; inconclusive means mostly about 16 µM to 33 µM; inactive means weaker than that. This is one part of the list.

target: Lysosomal acid glucosylceramidase (Homo sapiens) (UniProt P04062); experiment: Glucocerebrosidase; details: purified enzyme, resorufin glucoside fluorescence (screen aimed at inhibitors), 20 min;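 further: the screen sought inhibitors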
Sequence of UniProt P04062 (P04062 whole entry, looked up): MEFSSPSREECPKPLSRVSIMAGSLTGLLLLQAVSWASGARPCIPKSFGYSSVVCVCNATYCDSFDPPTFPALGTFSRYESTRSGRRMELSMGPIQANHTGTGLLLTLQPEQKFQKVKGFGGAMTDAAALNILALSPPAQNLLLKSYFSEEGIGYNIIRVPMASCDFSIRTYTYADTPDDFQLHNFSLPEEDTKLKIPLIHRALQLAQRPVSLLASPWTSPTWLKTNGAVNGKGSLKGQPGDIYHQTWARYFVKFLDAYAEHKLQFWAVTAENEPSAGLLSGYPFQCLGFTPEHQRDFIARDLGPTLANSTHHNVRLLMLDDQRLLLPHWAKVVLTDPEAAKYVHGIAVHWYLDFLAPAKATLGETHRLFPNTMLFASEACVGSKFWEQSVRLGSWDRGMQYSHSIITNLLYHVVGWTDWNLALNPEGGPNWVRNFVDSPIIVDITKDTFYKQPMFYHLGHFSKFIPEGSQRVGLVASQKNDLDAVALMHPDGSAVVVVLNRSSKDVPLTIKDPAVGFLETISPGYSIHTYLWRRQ
Procedure, shortened: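 Compounds titrated against 0.2 nM normal enzyme, 30 uM resorufin beta-D-glucopyranoside substrate, citrate/phosphate buffer with taurocholate and tween-20, pH 5.9. Reaction ran 20 min at room temperature; fluorescence (Ex 548/Em 600) gave AC50.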
Potency means the concentration at half of the fitted maximal effect.

Row | SMILES | Potency
1 | COc1ccc(CC(=O)NC2CCN(CC(=O)N3CCCc4ccccc43)CC2)cc1OC | inactive: > 76.9 µM
2 | COc1ccccc1NC(=O)Cn1nnc(-c2ccccc2NC(=O)c2ccco2)n1 | inactive: > 76.9 µM
3 | O=C(NC1CC1)C1CCN(c2ccc(S(=O)(=O)N3CCOCC3)cc2Cl)CC1 | inactive: > 76.9 µM
4 | CCCCn1c(SCC(=O)Nc2cc(C)on2)nc2c1c(=O)n(C)c(=O)n2C | inactive: > 76.9 µM
5 | CN(C)c1ccc(CNC2CC(C)(C)NC(C)(C)C2)cc1 | inactive: > 76.9 µM
6 | CCOC(=O)c1c(N)sc2c1CCCC2 | inactive: > 76.9 µM
7 | COc1ccccc1C(=O)N(Cc1cccs1)C1CCS(=O)(=O)C1 (stereo not drawn) | inactive: > 76.9 µM
8 | COc1ccc(OC)c(S(=O)(=O)NCc2csc(-c3ccccc3)n2)c1 | inactive: > 76.9 µM
9 | CCOC(=O)c1ccc(S(=O)(=O)N2CCN(CC3CC=CCC3)CC2)cc1 (stereo not drawn) | inactive: > 15.4 µM
10 | Cc1ccc2c(c1)N(Cc1ccc3c(c1)OCO3)C(=O)C(C)O2 (stereo not drawn) | inactive: > 76.9 µM
11 | CC(=O)NCCC(Cc1ccccc1)c1ccco1 (stereo not drawn) | inactive: > 76.9 µM
12 | CCCCC(=O)N(c1ccc(OCC)cc1)C1C=CS(=O)(=O)C1 (stereo not drawn) | inactive: > 76.9 µM
13 | O=C(Nc1ccon1)C1CCN(S(=O)(=O)c2cccs2)CC1 | inactive: > 76.9 µM
14 | CC1(C)CC(=O)c2cc(C(=O)NCc3ccco3)c(=O)n(-c3ccccc3)c2C1 | inactive: > 76.9 µM
15 | CCCOc1ccc(C(=O)NCc2cccnc2)cc1 | inactive: > 76.9 µM
16 | COc1cccc(OC)c1NC(=O)Cc1nn(C)c(=O)c2ccccc12 | inactive: > 76.9 µM
17 | C=CCOc1ccccc1/C=c1\sc2nc(-c3oc4ccccc4c3C)nn2c1=O | inactive: > 76.9 µM
18 | CC(=O)Cc1nsc(NC(=O)c2ccc(COc3ccc(C)cc3)o2)n1 | inactive
19 | O=S1(=O)C=C(Sc2nnc(-c3ccccc3)o2)c2ccccc21 | inactive: > 76.9 µM
20 | COC(=O)CSc1nnc(-c2ccc(S(=O)(=O)N3CCC(C)CC3)cc2)o1 | inactive: > 76.9 µM
21 | Cc1ccc(SC(C)C(=O)Nc2ncn[nH]2)cc1 (stereo not drawn) | inactive: > 76.9 µM
22 | COc1cc([C@H]2[C@@H]3CCCC[C@]3(O)CCN2Cc2ccccc2F)ccc1O | inactive: > 76.9 µM
23 | Cc1cc(NCc2ccccc2Cl)n2nnnc2n1 | inactive: > 76.9 µM
24 | O=C(NC1CCCC1)C1CCC(=O)N1C1CCCC1 (stereo not drawn) | inactive: > 76.9 µM

Row | SMILES | Potency
25 | Cc1cc(C(=O)COC(=O)CN(C)S(=O)(=O)c2ccc(Cl)cc2)c(C)n1CC1CCCO1 (stereo not drawn) | inactive: > 76.9 µM
26 | CC(=O)Nc1ccc(S(=O)(=O)N2CCN=C2C)cc1 | inactive: > 76.9 µM
27 | CSc1ncc(C(=O)O)n1-c1ccc(F)cc1 | inactive: > 76.9 µM
28 | CCOC(=O)CSc1nnc(CNc2ccccc2Cl)n1-c1ccccc1 | inactive: > 76.9 µM
29 | O=C(Cn1nc(-c2ccc(Cl)cc2)ccc1=O)N1CCN(c2ccccc2)CC1 | inactive: > 76.9 µM
30 | COC(=O)c1ccc(NC2=CC(=O)CC(C)(C)C2)cc1 | inactive: > 76.9 µM
31 | CCCCn1c(SCC(=O)Nc2ccc(OC)cc2)nc2ccc(N3CCOCC3)cc2c1=O | inactive: > 76.9 µM
32 | COc1ccc2[nH]cc(C(O)CN3CCN(c4ccccc4)CC3)c2c1 (stereo not drawn) | inactive: > 76.9 µM
33 | CCN(CCO)Cc1cn[nH]c1-c1ccc(C)c(C)c1 | inactive: > 76.9 µM
34 | CCOC(=O)Nc1sc(C(=O)N(CC)CC)c(C)c1C(=O)OCC | inactive: > 76.9 µM
35 | O=C(CN1CCC(O)CC1)N1c2ccccc2C=Cc2ccccc21 | inactive: > 76.9 µM
36 | CCOC(=O)N1CCC(n2c(=S)[nH]c3cc(OC)c(OC)cc3c2=O)CC1 | inactive: > 76.9 µM
37 | O=C(c1ccco1)N1CCN(C(=O)c2cc(-c3ccncc3)nc3ccc(Br)cc23)CC1 | inactive: > 76.9 µM
38 | O=C(CSc1ccc(Cl)cc1)N1CCOCC1 | inactive: > 76.9 µM
39 | O=S(=O)(c1ccc2c(c1)oc1ccccc12)N1CCOCC1 | inactive: > 76.9 µM
40 | Cc1nn2cc(-c3ccc(-c4ccccc4)cc3)nc2s1 | inactive: > 76.9 µM
41 | Cc1n[nH]c(=O)nc1N1CCN(c2ccccc2)CC1 | inactive: > 76.9 µM
42 | Cc1ccc(-c2nnn(CC(=O)N(CC(=O)NC3CCCCC3)c3cnc4ccccc4c3)n2)o1 | inactive
43 | O=S1(=O)N=C2CCCCCN2C(c2ccncc2)N1 (stereo not drawn) | inactive: > 76.9 µM
44 | c1ccc2c3c(cc(N4CCOCC4)c2c1)OC1(N2CCOCC2)CCCCC1O3 (stereo not drawn) | inactive: > 76.9 µM
45 | O=C(Cn1c(C(F)(F)F)nc2ccccc21)NCCN1CCCC1 | inactive
46 | Cc1cccc(-n2c(O)c(C=NCCCN3CCOCC3)c3ccccc3c2=O)c1 | inactive: > 76.9 µM
47 | N#CC1=C2Sc3ccccc3N2CCCC1=O | inactive: > 76.9 µM
48 | COC(=O)COc1ccc(S(=O)(=O)Nc2ccc3c(c2)OCO3)cc1 | inactive: > 76.9 µM

Row | SMILES | Potency
49 | O=C(NCCN1CCN(c2ccccc2)CC1)C1CCN(S(=O)(=O)c2cccc3nonc23)CC1 | inactive: > 76.9 µM
50 | CCOC(=O)C1CCCN(C(=O)Cn2cccc2C(=O)c2ccccc2)C1 (stereo not drawn) | inactive: > 76.9 µM
51 | O=C(O)c1ccn(Cn2cnc3ccccc32)n1 | inactive: > 76.9 µM
52 | O=c1c[n+]([O-])c2ccccc2n1OCc1ccccn1 | inactive: > 76.9 µM
53 | Nc1ccc(-n2ccnc2)cc1 | inactive: > 76.9 µM
54 | O=C(N1CCOCC1)N1CCN(c2ccccn2)CC1 | inactive: > 76.9 µM
55 | COCCCNC(=O)CSC1=Nc2ccccc2C2=NC(CC(=O)NCc3ccccc3)C(=O)N12 (stereo not drawn) | inactive: > 76.9 µM
56 | CNc1nc(-c2ccc(Cl)cc2)cs1 | inactive: > 76.9 µM
57 | O=C(Cn1cnc2c(nnn2Cc2ccccc2F)c1=O)NCc1ccco1 | inactive: > 76.9 µM
58 | O=C(NCC(=O)N1CCCC1C(=O)O)OC1CCCCC1 (stereo not drawn) | inactive
59 | O=C1NCCCc2nonc21 | inactive: > 76.9 µM
60 | S=c1[nH]nc(-c2ccncc2)n1Cc1ccco1 | inactive: > 76.9 µM
61 | O=C(C1CC1c1ccccc1)N1CCN(c2cccc(Cl)c2)CC1 (stereo not drawn) | inactive: > 76.9 µM
62 | O=C(OC1CCCCC1=O)c1cc(=O)c2ccccc2o1 (stereo not drawn) | inactive: > 76.9 µM
63 | COc1cc(C(=O)NCC2CCCO2)ccc1OCc1c(C)noc1C (stereo not drawn) | inactive: > 76.9 µM
64 | Cc1cc(C)cc(CC2CC(=O)N(c3nc(C)cc(C)n3)C2=O)c1 (stereo not drawn) | inactive: > 76.9 µM
65 | COc1ccc2c(c1OC)C(=O)N(c1cccc(C)c1)C2 | inactive: > 76.9 µM
66 | COc1ccccc1OCc1nc(Cc2ccc(Cl)cc2)no1 | inactive: > 76.9 µM
67 | COCCNC(=O)c1csc2c1CCCC2 | inactive: > 76.9 µM
68 | CN1CCN(c2nc3c(c(=O)[nH]c(=O)n3C)n2Cc2cccc3ccccc23)CC1 | inactive: > 76.9 µM
69 | CCN(CC)S(=O)(=O)c1ccc2c(c1)c(=O)c(C(=O)NCCCN(C)c1ccccc1)cn2C | inactive: > 76.9 µM
70 | O=C(NCc1ccc2c(c1)OCO2)C1CCCN1C(=O)Nc1ccc(F)cc1 (stereo not drawn) | inactive: > 76.9 µM
71 | O=C(OCCCC(=O)N1CCOCC1)c1ccccc1 | inactive: > 76.9 µM
72 | Brc1ccc(-c2cnc(-c3cccs3)o2)cc1 | inactive: > 76.9 µM

Row | SMILES | Potency
73 | CC(=O)c1cc(-c2ccccc2)[nH]c1N1CCCC1 | inactive: > 76.9 µM
74 | CCNC(=O)CC1C(=O)N(c2ccc(F)cc2)C(=O)N1Cc1ccccn1 (stereo not drawn) | inactive: > 76.9 µM
75 | O=C(CNC(=O)c1cccs1)NC1=NCCS1 | inactive: > 76.9 µM
76 | O=C1N(CCCCN2C(=O)C3(OCCO3)c3ccccc32)c2ccccc2C12OCCO2 | inactive: > 76.9 µM
77 | COc1ccc(OCCCON2C(=O)c3ccccc3C2=O)cc1 | inactive: > 76.9 µM
78 | CC1(c2ccc(OC(F)F)cc2)NC(=O)N(CC(=O)Nc2ccc3c(c2)OCO3)C1=O (stereo not drawn) | inactive: > 76.9 µM
79 | Cc1cc(N2CCN(C3CCCC3)CC2)n2nc(C)c(-c3ccccc3)c2n1 | inactive: > 76.9 µM
80 | C=CCc1ccccc1OCC(O)CN1CCN(c2ccccc2F)CC1 (stereo not drawn) | inactive: > 76.9 µM
81 | Clc1cc(Br)ccc1OCCn1ccnc1 | inactive: > 76.9 µM
82 | O=C(Cn1cnc2c(cnn2-c2ccccc2)c1=O)NCCc1ccccc1 | inactive: > 76.9 µM
83 | CN1CCN(CCCNC(=O)C2CCN(c3nnc(-n4cccc4)s3)CC2)CC1 | inactive: > 76.9 µM
84 | CCc1ccccc1NC(=O)CSc1nnc([C@@H](NC(=O)OC(C)(C)C)C(C)CC)o1 (stereo partly drawn) | inactive: > 76.9 µM
85 | CCc1ccc(-c2cn(-c3nc(C)cc(C)n3)c(=N)o2)cc1 | inactive
86 | CCOC(=O)N1CCN(Cc2nc(-c3ccc(OC)cc3)no2)CC1 | inactive: > 76.9 µM
87 | Clc1ccc(CSc2nnc(-c3ccccn3)n2Cc2ccco2)c(Cl)c1 | inactive: > 76.9 µM
88 | COc1ccccc1NC(=O)C1=C(C)Nc2ncnn2C1c1cccs1 (stereo not drawn) | inactive: > 76.9 µM
89 | CCN(C(=O)COc1cc(=O)n(C)c2ccccc12)c1cccc(Cl)c1 | inactive: > 76.9 µM
90 | CCOc1ccc(CSC2=NCCN2)cc1Cl | active: 8.36 µM
91 | Cc1cccc(Nc2ccccc2)c1 | inactive: > 76.9 µM
92 | Cc1cccc(OCCC(=O)Nc2c(C)n(C)n(-c3ccccc3)c2=O)c1 | inactive: > 76.9 µM
93 | Cc1ccc(-c2nn3c(C)nnc3s2)cc1NC(=O)c1cccnc1 | inactive: > 76.9 µM
